Here are results for 115 sequences from the BET-seq Pho4 binding data (Le et al. 2018).

Some of the results follow. These are noisy estimates, calculated here from bound and input reads.

The target in the test is T1, Pho4 (S. cerevisiae) (UniProt P07270).
T1 sequence: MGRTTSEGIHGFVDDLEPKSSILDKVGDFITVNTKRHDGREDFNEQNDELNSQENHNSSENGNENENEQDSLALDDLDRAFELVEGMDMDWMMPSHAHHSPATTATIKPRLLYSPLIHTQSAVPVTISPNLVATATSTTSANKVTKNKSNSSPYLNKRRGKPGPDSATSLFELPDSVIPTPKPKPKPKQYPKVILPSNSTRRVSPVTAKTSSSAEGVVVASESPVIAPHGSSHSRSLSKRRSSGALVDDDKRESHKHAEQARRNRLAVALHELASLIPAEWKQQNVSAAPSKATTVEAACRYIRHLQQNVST
Description: relative binding free energy (BET-seq); higher = weaker binding. Conditions: reference: library average.
As for TTTTACACGTGTACGC, the “relative binding free energy” value came out at 0.31 kcal/mol.

With TGCGACACGTGTAGGA, the “relative binding free energy” value was found to be 0.17 kcal/mol.

Consider GTGGACACGTGCGTTT, for which the “relative binding free energy” value was determined as 0.06 kcal/mol.

For the sequence AAAGTCACGTGGAGGG, the “relative binding free energy” value stood at 0.08 kcal/mol.

For the sequence ATGGACACGTGTATTA, the “relative binding free energy” value is 0.03 kcal/mol.

On to TCGGTCACGTGATGTT, for which the “relative binding free energy” value amounted to 0.2 kcal/mol.

As to GTTATCACGTGTAAGT, the “relative binding free energy” value was found to be 0.29 kcal/mol.

Turning to CAGGTCACGTGTGCGG, the “relative binding free energy” value is 0.04 kcal/mol.

In the case of GTAAGCACGTGTAGTC, the “relative binding free energy” value was found to be 0.09 kcal/mol.

Turning to TGGTTCACGTGGTAAA, the “relative binding free energy” value was 0.16 kcal/mol.

In the case of GGTACCACGTGTGTAG, the “relative binding free energy” value is -0.08 kcal/mol.

Turning to CCTTTCACGTGTGTGG, the “relative binding free energy” value stood at 0.07 kcal/mol.

In the case of TCTCTCACGTGGGGCG, the “relative binding free energy” value worked out at 0.15 kcal/mol.

On to CAGGTCACGTGTGAGG, for which the “relative binding free energy” value was -0.04 kcal/mol.

As for CGTTACACGTGAGAGG, the “relative binding free energy” value was determined as 0.4 kcal/mol.

As to ATGCGCACGTGGGGGC, the “relative binding free energy” value was -0.21 kcal/mol.

Regarding GGGGGCACGTGCTTGC, the “relative binding free energy” value is -0.17 kcal/mol.

Turning to TTCGACACGTGGGTGT, the “relative binding free energy” value was -0.12 kcal/mol.

As for TGTCTCACGTGAGGTC, the “relative binding free energy” value was determined as 0.31 kcal/mol.

Turning to ATTAGCACGTGATCTT, the “relative binding free energy” value turned out to be 0.02 kcal/mol.

AGGGTCACGTGGTTTA: the “relative binding free energy” value amounted to 0.05 kcal/mol.

For the sequence TTGTGCACGTGATTAT, the “relative binding free energy” value was -0.03 kcal/mol.

Take GAGTGCACGTGTCTTT: the “relative binding free energy” value is 0.19 kcal/mol.

On to CGCTTCACGTGGGGCG, for which the “relative binding free energy” value came out at 0.1 kcal/mol.

Consider GTAGTCACGTGTACTG, for which the “relative binding free energy” value is 0.09 kcal/mol.

Consider GGGGACACGTGCTAGG, for which the “relative binding free energy” value is -0.19 kcal/mol.

Consider TTTTTCACGTGCTTTG, for which the “relative binding free energy” value stood at 0.21 kcal/mol.

For the sequence TAGATCACGTGACGGT, the “relative binding free energy” value turned out to be 0.3 kcal/mol.

Consider ATGTGCACGTGTTGTG, for which the “relative binding free energy” value was determined as 0 kcal/mol.

For CAGGTCACGTGGGAAG, the “relative binding free energy” value turned out to be 0 kcal/mol.

For the sequence GGAGACACGTGTGGGA, the “relative binding free energy” value turned out to be 0.04 kcal/mol.

As for TGAGGCACGTGGTTCA, the “relative binding free energy” value is -0.14 kcal/mol.

In the case of TGGAACACGTGGCGGA, the “relative binding free energy” value is 0.02 kcal/mol.

Turning to CCTATCACGTGTGGGG, the “relative binding free energy” value worked out at 0.12 kcal/mol.

For GGCTACACGTGTGGTT, the “relative binding free energy” value was 0.29 kcal/mol.

In the case of GTTTGCACGTGGATAA, the “relative binding free energy” value was found to be 0.14 kcal/mol.

For ATAGTCACGTGGGCAT, the “relative binding free energy” value was -0.08 kcal/mol.

Regarding TTGGACACGTGGCGCT, the “relative binding free energy” value was -0.01 kcal/mol.

For the sequence ATTGTCACGTGCTATG, the “relative binding free energy” value is -0.2 kcal/mol.

Take GCGGGCACGTGGGGAC: the “relative binding free energy” value is -0.16 kcal/mol.

Take TGTGTCACGTGACGTG: the “relative binding free energy” value came to 0.18 kcal/mol.

Take ATTGGCACGTGGTTAT: the “relative binding free energy” value is -0.17 kcal/mol.

For the sequence GAGTACACGTGATGAG, the “relative binding free energy” value stood at 0.27 kcal/mol.

Turning to ATGTGCACGTGCTGTG, the “relative binding free energy” value was found to be 0.04 kcal/mol.

For GTAATCACGTGGAGAT, the “relative binding free energy” value worked out at 0.24 kcal/mol.

As for CTCGTCACGTGTATGT, the “relative binding free energy” value was 0.13 kcal/mol.

For GTGTGCACGTGGAGGC, the “relative binding free energy” value was 0.03 kcal/mol.

GAAAACACGTGGGGTT: the “relative binding free energy” value was -0.03 kcal/mol.

As for ATTTACACGTGTGGTG, the “relative binding free energy” value turned out to be 0.17 kcal/mol.

For TTGGTCACGTGTCGAG, the “relative binding free energy” value came to 0.16 kcal/mol.

As for TTCGGCACGTGGAAGG, the “relative binding free energy” value is -0.05 kcal/mol.

As to ATGAGCACGTGATATG, the “relative binding free energy” value is -0.04 kcal/mol.

On to GCTGGCACGTGGTCTT, for which the “relative binding free energy” value is -0.19 kcal/mol.

With GGGCACACGTGAGAGT, the “relative binding free energy” value is 0.23 kcal/mol.

Consider TGTCTCACGTGGCTAG, for which the “relative binding free energy” value amounted to 0.23 kcal/mol.

Regarding GGCGGCACGTGGAGTC, the “relative binding free energy” value turned out to be 0.01 kcal/mol.

For the sequence TCATTCACGTGTGCGT, the “relative binding free energy” value was 0.26 kcal/mol.

GTTTGCACGTGGGGCC: the “relative binding free energy” value was -0.05 kcal/mol.

For GTTGTCACGTGGCAGG, the “relative binding free energy” value was -0.09 kcal/mol.

For AATGTCACGTGGTAGG, the “relative binding free energy” value was -0.03 kcal/mol.

On to TTCCGCACGTGTTGGG, for which the “relative binding free energy” value was -0.14 kcal/mol.

For TGTTGCACGTGGCAAG, the “relative binding free energy” value is -0.05 kcal/mol.

As to AAGAGCACGTGGGCGG, the “relative binding free energy” value was -0.32 kcal/mol.

For GTAGTCACGTGATTGA, the “relative binding free energy” value was found to be 0.25 kcal/mol.

With TAGTCCACGTGGAGGT, the “relative binding free energy” value was determined as 0.02 kcal/mol.

Turning to TAGTGCACGTGAGTTC, the “relative binding free energy” value was found to be 0.24 kcal/mol.

With ACGTGCACGTGGCAGT, the “relative binding free energy” value is 0.04 kcal/mol.

Turning to TTAAACACGTGGGGCG, the “relative binding free energy” value is -0.06 kcal/mol.

As for AGTCTCACGTGATATG, the “relative binding free energy” value was 0.32 kcal/mol.

As to ATGCGCACGTGTGTTT, the “relative binding free energy” value is -0.03 kcal/mol.

For TGTAGCACGTGGCAGT, the “relative binding free energy” value was -0.21 kcal/mol.

With TTGTACACGTGGAGCT, the “relative binding free energy” value was 0 kcal/mol.

For the sequence GTATGCACGTGAATGG, the “relative binding free energy” value stood at 0.17 kcal/mol.

For GTTTACACGTGCTTAA, the “relative binding free energy” value was 0.1 kcal/mol.

In the case of TTAAACACGTGTTTGT, the “relative binding free energy” value was -0.06 kcal/mol.

In the case of TTACACACGTGTTTTG, the “relative binding free energy” value amounted to 0.04 kcal/mol.

In the case of ATTGCCACGTGGGTTT, the “relative binding free energy” value is -0.3 kcal/mol.

Regarding GCGAGCACGTGTGTGT, the “relative binding free energy” value was 0.04 kcal/mol.

For the sequence AAGGGCACGTGAATTT, the “relative binding free energy” value is 0.11 kcal/mol.

On to ATGGACACGTGTGAAT, for which the “relative binding free energy” value was 0.1 kcal/mol.

For the sequence TATGGCACGTGGTACG, the “relative binding free energy” value is -0.2 kcal/mol.

For TGGTTCACGTGTAGGA, the “relative binding free energy” value came to 0.26 kcal/mol.

With ACTGGCACGTGGTCGG, the “relative binding free energy” value was -0.36 kcal/mol.

In the case of TGTAACACGTGAAGGG, the “relative binding free energy” value is 0.36 kcal/mol.

Take GTAGGCACGTGGGGGC: the “relative binding free energy” value is -0.23 kcal/mol.

Consider GGGTACACGTGATGCG, for which the “relative binding free energy” value amounted to 0.12 kcal/mol.

As for ATTTGCACGTGATAGT, the “relative binding free energy” value is 0.12 kcal/mol.

As for CGGGTCACGTGTGGAC, the “relative binding free energy” value is 0.29 kcal/mol.

GTAGACACGTGAGCGG: the “relative binding free energy” value was 0.18 kcal/mol.

For ACGTACACGTGTTGTG, the “relative binding free energy” value came to 0.06 kcal/mol.

In the case of TTGGGCACGTGCGTGC, the “relative binding free energy” value was -0.2 kcal/mol.

ATGTTCACGTGGAGCT: the “relative binding free energy” value came out at 0.19 kcal/mol.

Consider ATATGCACGTGAGCGT, for which the “relative binding free energy” value is -0.06 kcal/mol.

With TTCGGCACGTGTATTG, the “relative binding free energy” value was -0.15 kcal/mol.

As to ATTATCACGTGTTTTT, the “relative binding free energy” value was determined as 0.23 kcal/mol.

Turning to GGGAGCACGTGAGTCG, the “relative binding free energy” value stood at 0.21 kcal/mol.

Regarding TATATCACGTGATTGC, the “relative binding free energy” value is 0.16 kcal/mol.

Regarding GGATGCACGTGGCGCT, the “relative binding free energy” value stood at 0.02 kcal/mol.

As for GCTGGCACGTGAGCGG, the “relative binding free energy” value was determined as 0.21 kcal/mol.

As for TAGGGCACGTGGAATG, the “relative binding free energy” value is -0.09 kcal/mol.

Regarding GGCGGCACGTGTAGTT, the “relative binding free energy” value was -0.02 kcal/mol.

As to CAGGTCACGTGTGTGT, the “relative binding free energy” value is 0.12 kcal/mol.

In the case of GGGGGCACGTGTTCGC, the “relative binding free energy” value was -0.08 kcal/mol.

Regarding TGATTCACGTGGGGGC, the “relative binding free energy” value was determined as 0.24 kcal/mol.

Take ATTTACACGTGTCGTA: the “relative binding free energy” value stood at 0.01 kcal/mol.

Consider TGCGTCACGTGAAGGG, for which the “relative binding free energy” value was 0.22 kcal/mol.

With CATTGCACGTGTGGAT, the “relative binding free energy” value worked out at 0.01 kcal/mol.

As for GTAGCCACGTGGGTAT, the “relative binding free energy” value was -0.1 kcal/mol.

As to TGGATCACGTGTAGAA, the “relative binding free energy” value is 0.3 kcal/mol.

With ATGTGCACGTGTAGAT, the “relative binding free energy” value was 0 kcal/mol.

Take TGTACCACGTGTGGAA: the “relative binding free energy” value is 0.16 kcal/mol.

For the sequence TGTGTCACGTGCAGTT, the “relative binding free energy” value turned out to be 0.06 kcal/mol.

As to GATGGCACGTGGTATA, the “relative binding free energy” value was -0.11 kcal/mol.

With AGGGGCACGTGGTAAG, the “relative binding free energy” value is -0.11 kcal/mol.

For the sequence GTATTCACGTGTAGAG, the “relative binding free energy” value amounted to 0.19 kcal/mol.
